Measurements as given in article PMC4055408, “The Transcription Factor TFII-I Promotes DNA Translesion Synthesis and Genomic Stability” (PLoS Genetics, 2014).
One block for each binder: values may come before it.

Assays:
TFII-I^330–667 fragment = biological target: T1, TFII-I^330–667 fragment (human, UniProt P78347 330-667); assay: SEC; purified recombinant proteins mixed (1:1:1 molar ratios for Figure 1E) and fractionated on Superdex 200 10/300 GL; fractions on SDS-PAGE, Coomassie; conditions: both partners purified
T1 construct: also called monomeric TFII-I fragment; source: bacteria, GST fusion, purified (glutathione-Sepharose 4B, PreScission, anion exchange, size exclusion)

[1] = biological target: T2, TFII-I fragment (residues 350–667) containing R2-R4 (human, UniProt P78347 350-667); assay: as above; conditions: both partners purified
T2 construct: source: bacteria, GST fusion, purified (glutathione-Sepharose 4B, PreScission, anion exchange, size exclusion)

binding result (TFII-I^330–667 fragment): binds
binding result [1]: binds
B1: His6-Rev7 R124A (natural protein)
chain: not shown
notes: human Rev7 with R124A (disrupts Rev7 dimerization); The Rev7 chain of m12, written alone for the pairs that touch inside the reconstituted complexes; source: prepared as previously described

binding result (TFII-I^330–667 fragment): binds
B2: Rev7 R124A–Rev3L ([…]) complex (complex)
chain 1: [letters of about 200 residues omitted]
chain 2: MLTPTPDSSPRSTSSPSQSKNGSFTPRTANILKPLMSPPSREEIMATLLDHD
notes: human Rev7 with R124A (disrupts Rev7 dimerization); also called Rev7–Rev3L; source: recombinant, purified; prepared as previously described; copies: 1 + 1
